From PubChem BioAssay AID2451 (National Center for Advancing Translational Sciences (NCATS), 2010)
In all, about 290,000 compounds went through this assay and about 2,100 (0.72%) were called active. This list was built around the results that the source calls inconclusive (neither active nor inactive); the mix of calls is not that of the screen. Calls follow the shape of the dose curve; as a rule, active = well fitted inhibition curve with a large enough effect; inconclusive = small, poorly fitted or top-dose-only effect, or effect the other way; inactive = flat fitted curve, though single readings scatter. Potencies beside an inconclusive call are fits to weak or partial responses and may not hold up.

target: Fructose-bisphosphate aldolase (Giardia intestinalis (strain ATCC 50803 / WB clone C6)) (UniProt A8B2U2); assay: qHTS Assay for Inhibitors of Fructose-1,6-bisphosphate Aldolase from Giardia Lamblia; details: purified Giardia FBPA; series mostly up to 59.6 µM; also: nearly all actives have a fitted effect of over 55% in size
UniProt A8B2U2, sequence (A8B2U2 whole entry, looked up): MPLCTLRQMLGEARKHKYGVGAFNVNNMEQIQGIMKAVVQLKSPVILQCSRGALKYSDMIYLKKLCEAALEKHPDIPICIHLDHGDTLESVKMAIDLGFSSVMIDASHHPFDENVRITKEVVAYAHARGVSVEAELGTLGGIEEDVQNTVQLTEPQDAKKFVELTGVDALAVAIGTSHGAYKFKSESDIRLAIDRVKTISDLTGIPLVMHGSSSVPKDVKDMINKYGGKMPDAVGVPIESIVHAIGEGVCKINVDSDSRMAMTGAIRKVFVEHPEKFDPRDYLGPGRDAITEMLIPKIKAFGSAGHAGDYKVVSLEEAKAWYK
Source text: Assay Provider: Osnat Herzberg, University of Maryland
The objective of this project is to obtain compounds that inhibit Giardia lamblia growth. G. lamblia is a human pathogen which afflicts impoverished nations; it is the most common cause of outbreaks of diarrhea in the United States. During the course of our study of potential drug targets in Giardia, we have identified the Class II (Zn2+ functions in electrophilic catalysis) fructose-1,6-bisphosphate aldolase (FBPA) as an excellent candidate for drug targeting. FBPA is a key glycolytic pathway enzyme, essential for G. lamblia survival. The human FBPA belongs to the Class I aldolases, which have a different substrate binding site structure and a radically different catalytic mechanism (employing a lysine-Schiff base intermediate). Therefore, affinity-based or mechanism-based inhibitors of the Giardia FBPA are expected not to interfere with the catalytic function of the human FBPA.
A glyceraldehyde-3-phosphate dehydrogenase/triose phosphate isomerase/NAD/arsenate coupled assay was adapted to the 1536-well HTP format for use in the primary screen. This was done by coupling it to a diaphorase/resazurin/resorufin reaction that can be monitored by fluorescence (excitation, 544 nm; emission, 590 nm). Compounds identified in this screen will be further evaluated by coupling the glycerol-3-phosphate/triose phosphate isomerase/NADH assay to a phenazine methosulfate/tetranitroblue tetrazolium color reaction. False positives due to the dehydrogenases and diaphorase inhibition will be eliminated, and selectivity assay will triage inhibitors of mammalian triose phosphate isomerase and the Class I FBPA. G. lamblia FBPA inhibitors identified by the in vitro analyses will be examined for growth inhibition of Giardia trophozoites, and for cytotoxicity in human cells.
Step,Parameter,Value,Description
1,Enzyme reagent,2 uL,40 nM FBPA
2,Compound,23 nL,3.68 nM-57.5 uM final concentration
3,Time,10 min,RT Incubation
4,Substrate/detection Reagent,2 uL,Substrate + enzyme coupling system + AmpLite Red kit
5,Time,20 min,RT Incubation
6,Detector,525 nm/598 nm (Fluorescence),ViewLux Fluorescence Read (Read 1)
1,Medium-binding black solid-bottom Kalypsys plates. FRD or Kalypsys dispenser, 2 uL of FBPA enzyme. Bottle kept at 4C.
2,Compound Library (10 mM ,1:5 dilution). Pin-transferred for a [final] range of 3.68 nM-57.5 uM.
4,FRD or Kalypsys dispenser, 2 uL of reaction mixture. Bottle kept at 4C and covered in foil to protect from light.
6,ViewLux Protocol 1194; Excitation filter wheel A (525/20 Pol; BODIPY TMR FP), Emission filter wheel B (598/25 S; BODIPY TMR FP S).
Keywords: Fructose-bisphosphate aldolase, FBPA , Giardia lamblia , Giardia, HTS, Inhibitors
Potency is read from the fitted curve at half-maximal effect; tags tell the direction and shape of the fitted curve.

Structure (SMILES) | Potency
COC(=O)Nc1sc2c(c1C(N)=O)CCC(C)C2 (stereo not given) | active: 8.89 µM
Cc1ccccc1C(=O)NNC(=S)NC(=O)c1ccc(Cl)cc1Cl | inconclusive: 15.8 µM [activator, partial curve]
O=C(Nc1cccnc1)c1cnn2cccnc12 | inactive
CC(=O)c1cccc(OCC(O)CN2CCN(C(=O)c3ccco3)CC2)c1 (stereo not given) | inconclusive: 17.8 µM [inhibitor, partial curve]
Cc1ccc(NC(=O)CN(C)CC(=O)Nc2cccc(F)c2)cc1S(=O)(=O)N1CCCCCC1 | active: 15.8 µM
Cn1cc(NC(=O)c2cc(NC(=O)c3cc(NC=O)cn3C)cn2C)cc1C(=O)NCCC(=N)N | inconclusive: 19.9 µM [inhibitor, partial curve]
Oc1ccccc1Oc1c(F)c(F)nc(N2CCCC2)c1F | inconclusive: 19.9 µM [inhibitor, single point]
O=[N+]([O-])c1ccc(N2CCCCC2)c2ncccc12 | inconclusive: 15.8 µM [inhibitor, partial curve]
COC/C=C/C1=CC2=CC(=O)C(C)(OC(=O)c3cnc4ccccc4n3)C(=O)C2=CN1CCc1c[nH]c2ccccc12 (stereo not given) | inconclusive: 1.41 µM [inhibitor, partial curve]
N#Cc1c(-c2ccccc2)nc(SCC(=O)N(c2ccccc2)c2ccccc2)[nH]c1=O | inconclusive: 17.7 µM [activator, single point]
CCCN(CCC)S(=O)(=O)c1ccc(C(=O)O)cc1 | inconclusive: 19.9 µM [activator, single point]
C=CCOc1c(Br)cc(CNc2ccc(NC(=O)C(C)C)cc2)cc1OCC | inconclusive: 15.8 µM [inhibitor, single point]
CC[C@H](NC(C)C)[C@H](O)c1ccc(O)c(O)c1 | active: 3.54 µM
CCOC1=C/C(=C/c2c(N)n3nc(CC(=O)N4CCCC4)sc3nc2=O)C=CC1=O | inconclusive: 15.8 µM [inhibitor, partial curve]
CN1CC(=O)N(CC(=O)Nc2ccc(N(C)C)cc2)c2ccccc2C1=O | inconclusive: 44.7 µM [inhibitor, partial curve, poor fit]
Cc1ccc(C(=O)COC(=O)c2c(C)cc(=O)oc2C)cc1[N+](=O)[O-] | inconclusive: 0.889 µM [inhibitor, full curve]
CCN(CCNCC(O)COc1ccccc1C(C)C)c1cccc(C)c1 (stereo not given) | active: 22.4 µM
COc1ccc(NC(=O)CNc2cc(S(=O)(=O)N3CCOCC3)ccc2NCC2CCCO2)cc1 (stereo not given) | inconclusive: 17.7 µM [inhibitor, partial curve]
Cn1c(=O)cc(-c2ccccc2)c2ccccc21 | inactive
CCOc1cc2c(C#N)c(N3CCOCC3)nc(N)c2c(N)n1 | inconclusive: 5 µM [inhibitor, full curve]
OCCC1CN(CCCc2ccccc2)CCN1Cc1ccccc1 (stereo not given) | inactive
CCCCC1=CC2=CC(=O)C(C)(OC(=O)CC)C(=O)C2=CN1Cc1ccco1 (stereo not given) | inconclusive: 1.99 µM [inhibitor, full curve]
O=C(CNCC1CCCCC1)Nc1cccc(S(=O)(=O)N2CCOCC2)c1 | inconclusive: 17.7 µM [inhibitor, partial curve]

Structure (SMILES) | Potency
Cc1cc2ncc(-c3cccs3)nc2cc1C | inactive
Cc1nn(C)c(C(=O)NC(=S)Nc2ccc([N+](=O)[O-])cc2)c1Cl | active: 12.6 µM
COc1ccc(NS(=O)(=O)c2ccc3ccccc3c2)c2ncccc12 | inactive
CCC(C)NCCCOc1ccc(Cl)cc1C(C)(C)C (stereo not given) | inconclusive: 15.8 µM [inhibitor, single point]
Cc1ccc(/C=C/C2=NN(Cc3ccc(Cl)c(Cl)c3)C(=O)CC2)cc1 | inactive
Cc1ccc2nc(CSc3nnc(-c4ccco4)o3)cc(=O)n2c1 | inconclusive: 28.1 µM [inhibitor, single point]
C(=Nc1ccc(N2CCOCC2)cc1)c1c[nH]c2ccccc12 | inconclusive: 7.92 µM [inhibitor, partial curve]
C=CCn1c(=O)c2c(nc3n2CCN3c2cccc(Cl)c2C)n(C)c1=O | inactive
Cc1ccc(OCC(=O)OC(C)CN2CCCCC2)cc1 (stereo not given) | inconclusive: 28.2 µM [inhibitor, single point]
COc1ccc(S(=O)(=O)N(C(=O)c2ccco2)c2cc3sc(=O)oc3c3ccccc23)cc1 | inconclusive: 17.7 µM [inhibitor, single point]
CN1CCc2c(sc3c2c(NCc2ccco2)nc2nnnn23)C1 | inconclusive: 8.91 µM [inhibitor, full curve, poor fit]
CCCc1ccc(OCC(O)CN2CCN(CCO)CC2)cc1 (stereo not given) | inconclusive: 28.2 µM [inhibitor, partial curve]
Cc1[nH]c(-c2ccco2)nc1C(=O)O | inconclusive: 19.9 µM [inhibitor, partial curve]
CCN1CCN(C(=S)NCCOC)CC1 | inconclusive: 19.9 µM [inhibitor, partial curve]
Cc1nn(CC(=O)N2CCC(C)CC2)c(=O)c2nn(-c3ccccc3)c(C)c12 | inconclusive: 35.5 µM [activator, single point]
COc1ccc(-c2nc(CSCC(=O)NCc3ccco3)c(C)o2)cc1 | inactive
CCOc1cc(/C=C2\SC(=Nc3ccc(F)cc3)N(c3ccc(F)cc3)C2=O)ccc1OCC(=O)O | inconclusive: 22.3 µM [activator, single point]
CC(=O)Nc1ccc(Br)cc1C(=O)C(=O)O | inactive
CCCCC1(C)NC(=S)N2N1C(=S)NC2(C)CCCC (stereo not given) | active: 15.8 µM
O=C(c1cccc(F)c1)N1CCC(N2CCOCC2)CC1 | inconclusive: 15.8 µM [inhibitor, single point]
COc1ccc(Cl)cc1C(=O)NNC(=S)NC(=O)c1ccc(F)c(F)c1 | inconclusive: 28.2 µM [activator, partial curve]
CCN1CC=C2C(C#N)=C(N)C(C#N)(C#N)C(CCc3ccccc3)C2C1 (stereo not given) | inconclusive: 15.8 µM [inhibitor, partial curve]
